# Measurements taken from PubChem BioAssay AID588689 (Southern Research Specialized Biocontainment Screening …, 2011).
# Hit rate of the full screen: of about 340,000 compounds, about 1,000 (0.29%) were called active. The inconclusive results got no clear call from the source; some entries with a clear call stand among them for comparison. Cut-off read from the data, not from the text of the source: inconclusive = inhibition above about 29% without an active follow-up result; inactive = below that.
# Target: Genome polyprotein (Dengue virus type 2 (strain 16681-PDK53)) (UniProt P29991)
# Test: Dengue-2 NS5 methyltransferase inhibitors, primary screen, biochemical, confirmation dose response (AID 588689)
# Conditions: Dengue-2 NS5 methyltransferase capping enzyme assay, at 25 µM, hits give high values
row,SMILES,inhibition
1,Nn1c(Cc2ccccc2F)nnc1SCC(=O)Nc1cccc(S(=O)(=O)NC2=NCCCCC2)c1,inactive: -0.76%
2,c1ccc(-c2cn3nc4c(nc3n2)CCCC4)cc1,inconclusive: 93.9%
3,Cc1ccccc1OCC(=O)NNC(=S)NC(=O)c1ccccc1[N+](=O)[O-],inactive: -8.89%
4,O=C1c2ccccc2CCC12OC2c1ccc([N+](=O)[O-])cc1 (centres undefined),inactive: -3.43%
5,CCc1nc2nc(C)c(NS(=O)(=O)c3ccc(C4CCCCC4)cc3)c(=O)n2[nH]1,inactive: 7.51%
6,Cc1cccc([C@@H]2[C@@H]3C(=O)N(Cc4ccccc4)C(=O)[C@@H]3[C@]3(Cc4ccc(Cl)cc4)C(=O)N(c4ccccc4)C(=O)N23)c1,inconclusive: 32%
7,Cc1cccc(-n2cc(-c3ccc([N+](=O)[O-])cc3)[nH]c2=S)c1,inactive: -5.13%
8,COc1ccc(Cn2c3ccc(OC)cc3c3nc4ccccc4nc32)cc1,inconclusive: 41.2%
9,CN(C(=O)COC(=O)c1ccc([N+](=O)[O-])cc1N)c1ccccc1,inconclusive: 52.7%
10,COc1ccc(N2C(=O)c3cccc4c(N(C)CCO)ccc(c34)C2=O)cc1,inconclusive: 34.7%
11,CCCCCCc1cc2cc(-c3nnc(-c4ccccc4)o3)c(=O)oc2cc1O,inconclusive: 168%
12,COc1ccc(OC)c(N=c2oc3c(OC)cccc3cc2C(=O)NCc2ccco2)c1,inactive: -9.6%
13,Cc1ccc(CNC(=O)c2cccc3c2C(=O)c2ccc(N4CCC(C)CC4)cc2S3(=O)=O)cc1,inconclusive: 55.5%
14,Oc1ccc2nnc3c(Br)cnn3c2c1,inconclusive: 126%
15,O=C(Nc1cccc(C(F)(F)F)c1)c1ccc2nc(-c3ccco3)c(-c3ccco3)nc2c1,inactive: 21.6%
16,N#CC(C(=O)NC1CC1)c1nc2ccccc2nc1N1CCN(C/C=C/c2ccccc2)CC1 (centres undefined),inconclusive: 64.1%
17,CCOc1ccccc1CN1CCNC(=O)C1CC(=O)NC1CCCCCC1 (centres undefined),inactive: 7.85%
18,O=C(O)c1cccc(Nc2ccc3nonc3c2[N+](=O)[O-])c1,inactive: 1.54%
19,C1=CC2c3ccccc3NC(c3ccncc3)C2C1 (centres undefined),inconclusive: 46%
20,Clc1ccc(-c2nnc3sc(-c4ccc(Br)o4)nn23)cc1,inconclusive: 109%
21,CCCOc1cc(N(CC)CC)ccc1/C=C(/C#N)c1nc2ccc(C)cc2[nH]1,inconclusive: 139%
22,COC(=O)Nc1nc(-c2ccccc2)c(C(=O)c2ccccc2)s1,inactive: -4.12%
23,S=C(Nc1cccc(Cl)c1)Nc1cccc2cnccc12,inconclusive: 39.6%
24,O=S(=O)(c1ccc(F)cc1)N1CN(Cc2ccco2)c2nc3ccccc3nc21,inconclusive: 38%
25,CN1CCCc2cc3c(C(F)(F)F)cc(=O)oc3nc21,inconclusive: 91.9%
26,O=S(=O)(CCSc1ccc(C(F)(F)F)cn1)c1ccccc1,inactive: -9.27%
27,CN1C=CC2=C(C#N)C(N)C(C#N)(C#N)C(c3ccccc3)C2C1 (centres undefined),inconclusive: 62.4%

row,SMILES,inhibition
1,Cc1ccc(/C=C2\Oc3c(ccc(O)c3CN3CCN(CCO)CC3)C2=O)cc1,inconclusive: 33.5%
2,COc1ccc(C2=CC(c3ccco3)n3ncnc3N2)cc1 (centres undefined),inconclusive: 99%
3,CCCCCCNC(=O)C(C#N)c1nc2ccccc2nc1N1CCCC1 (centres undefined),inconclusive: 77.3%
4,Cc1ccc(S(=O)(=O)Nc2cccc(S(=O)(=O)Nc3ccccc3C(=O)O)c2)c(C)c1,inactive: 17.5%
5,COc1ccc(S(=O)(=O)NCCCN2CCCC2=O)cc1OC,inactive: -6.1%
6,O=C1CCc2ccc(OCCCCN3CCN(c4cccc(Cl)c4Cl)CC3)cc2N1,inconclusive: 104%
7,Cc1[nH]n(-c2ccccc2)c(=O)c1C(C[N+](=O)[O-])c1ccc(Br)cc1 (centres undefined),inactive: 12.4%
8,O=C1c2cccc3cc([N+](=O)[O-])cc(c23)C(=O)N1CCN1CCCC1,inconclusive: 54.6%
9,CCCCCCCCCCCC1=C(O)C(=O)C=C(O)C1=O,inconclusive: 89.9%
10,CC(C)CCn1c(SCC(=O)Nc2ccccc2C(F)(F)F)nc2nccnc2c1=O,inactive: -2.66%
11,COC(=O)Cc1cc(=O)n2[nH]c(SC)nc2n1,inconclusive: 33.8%
12,O=C1Nc2ccccc2/C1=C/c1ccc([N+](=O)[O-])cc1,inactive: -15.7%
13,O=C(CCSc1nc2ccccc2s1)N/N=C/c1c(O)ccc2ccccc12,inconclusive: 102%
14,Cc1oc2c(cc(NS(=O)(=O)c3ccc(C(C)C)cc3)c3ccccc32)c1C(=O)O,inconclusive: 58.5%
15,COc1cc(/C=C2\SC(=Nc3ccccc3)NC2=O)cc(Cl)c1O,inconclusive: 173%
16,Cc1c(Cl)cccc1NC(=O)CC1Sc2ccccc2NC1=O (centres undefined),inactive: -2.59%
17,Nc1ccc2c3c(cccc13)C(=O)N(c1ccccc1)C2=O,inconclusive: 196%
18,CC(C)Cc1nn2c(N)c(/C=C3\C=Nc4ccccc43)c(=O)nc2s1,inconclusive: 74.8%
19,C=CCOc1cccc(C2/C(=C(/O)c3ccc4c(c3)CC(C)O4)C(=O)C(=O)N2CCN2CCOCC2)c1 (centres undefined),inconclusive: 28.5%
20,Cc1ccc(CNC(=O)c2cccc3c2C(=O)c2ccc(N4CCCCC4)cc2S3(=O)=O)cc1,inconclusive: 69.9%
21,O=C1C2C3C=CC(C4CC34)C2C(=O)N1/N=C/c1ccc(-c2ccc([N+](=O)[O-])cc2)o1 (centres undefined),inconclusive: 38.9%
22,N#Cc1c2nc3ccccc3nc2n2cc(NC(=O)c3ccc(F)cc3)ccc12,inconclusive: 46.4%
23,COc1cccc2nc3c(C(=O)NCCN(C)C)cccc3cc12,inconclusive: 30.9%
24,Cc1ccc(-n2cc3ccc([N+](=O)[O-])cc3n2)cc1,inactive: -5.66%
25,CNc1ccc2c3c(cccc13)C(=O)N(C)C2=O,inconclusive: 173%
26,Cc1ccc(C(=O)O)cc1-c1ccc(/C=C2\SC(=O)N(CC(=O)Nc3ccc4c(c3)OCO4)C2=O)o1,inconclusive: 48.5%
27,Cc1ccc(/C=C2/Sc3ccc(C(=O)NCc4ccccn4)cc3NC2=O)cc1,inconclusive: 59.5%
